Measured values: US20070160574A1, “Design of CXC chemokine analogs for the treatment of human diseases” (priority 2000, published 2007)
For at least one compound, name, drawing or mass did not settle the structure. No end group written: not given here.

Molecular target: T1, SDF-1 receptor on SUP-T1 cells (Homo sapiens, UniProt P61073)
T1 construct: host or cells: SUP-T1 human lymphoid cells
Test: SDF-1 mimetic binding assay, competition with 0.02 nM 125I-SDF-1 on SUP-T1 cells (Ki)
Conditions: 0.02 nM 125I-SDF-1, 4° C., 2 h

T1 sequence (P61073 whole entry): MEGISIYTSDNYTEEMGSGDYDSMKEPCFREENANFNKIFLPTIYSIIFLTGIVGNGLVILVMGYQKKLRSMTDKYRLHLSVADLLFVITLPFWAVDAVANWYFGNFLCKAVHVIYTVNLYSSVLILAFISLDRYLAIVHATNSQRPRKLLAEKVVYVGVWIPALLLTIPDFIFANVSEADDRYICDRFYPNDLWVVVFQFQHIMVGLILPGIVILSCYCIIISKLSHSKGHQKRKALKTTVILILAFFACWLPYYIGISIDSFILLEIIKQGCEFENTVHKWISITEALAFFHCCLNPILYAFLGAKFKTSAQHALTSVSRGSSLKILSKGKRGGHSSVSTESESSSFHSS

Substance	Ki [nM]
KPVSLSYRAPFRFFGGKKLKWIQEYLEKALN-NH2 (C-terminus assumed) [SEQ ID NO: 9]	343
KPVSLSYRAPFRFFGRGRLKWIQEYLEKALN-NH2 [SEQ ID NO: 27]	1540
KPVSLSYRAPFRFFGKKGLKWIQEYLEKALN-NH2 (C-terminus assumed) [SEQ ID NO: 8]	137
KPVSLSYRAPFRFFGGGKLKWIQEYLEKALN-NH2 (C-terminus assumed) [SEQ ID NO: 6]	306
KPVSLSYRAPFRFFGRRRLKWIQEYLEKALN-NH2 [SEQ ID NO: 29]	1260
KPVSLSYRAPFRFFGRRGLKWIQEYLEKALN-NH2 [SEQ ID NO: 23]	1670
KPVSLSYRAPFRFFKGGKLKWIQEYLEKALN-NH2 (C-terminus assumed) [SEQ ID NO: 10]	493
KPVSLSYRAPFRFFRGRRLKWIQEYLEKALN-NH2 [SEQ ID NO: 30]	1110
KPVSLSYRAPFRFFKKKKLKWIQEYLEKALN-NH2 (C-terminus assumed) [SEQ ID NO: 17]	1240
KPVSLSYRAPFRFFKKKGLKWIQEYLEKALN-NH2 (C-terminus assumed) [SEQ ID NO: 13]	2550
KPVSLSYRAPFRFFGGGRLKWIQEYLEKALN-NH2 (C-terminus assumed) [SEQ ID NO: 21]	2450
KPVSLSYRAPFRFFKGKKLKWIQEYLEKALN-NH2 (C-terminus assumed) [SEQ ID NO: 15]	2000
KPVSLSYRAPFRFFRRGRLKWIQEYLEKALN-NH2 [SEQ ID NO: 31]	797
KPVSLSYRAPFRFFGGRRLKWIQEYLEKALN-NH2 [SEQ ID NO: 24]	1780
KPVSLSYRAPFRFFKKGKLKWIQEYLEKALN-NH2 (C-terminus assumed) [SEQ ID NO: 16]	2110
KPVSLSYRAPFRFFGKKKLKWIQEYLEKALN-NH2 (C-terminus assumed) [SEQ ID NO: 14]	1170
KPVSLSYRAPFRFFRRRGLKWIQEYLEKALN-NH2 [SEQ ID NO: 28]	741
KPVSLSYRAPFRFFRGGRLKWIQEYLEKALN-NH2 [SEQ ID NO: 25]	1080
KPVSLSYRAPFRFFGRGGLKWIQEYLEKALN-NH2 (C-terminus assumed) [SEQ ID NO: 19]	1760
KPVSLSYRAPFRFFKKGGLKWIQEYLEKALN-NH2 (C-terminus assumed) [SEQ ID NO: 7]	412
KPVSLSYRAPFRFFRGRGLKWIQEYLEKALN-NH2 [SEQ ID NO: 26]	1260
KPVSLSYRAPFRFFGGKGLKWIQEYLEKALN-NH2 [SEQ ID NO: 5]	378
KPVSLSYRAPFRFFGKGGLKWIQEYLEKALN-NH2 (C-terminus assumed) [SEQ ID NO: 4]	586
KPVSLSYRAPFRFFRRRRLKWIQEYLEKALN-NH2 [SEQ ID NO: 32]	833
KPVSLSYRAPFRFFRGGGLKWIQEYLEKALN-NH2 (C-terminus assumed) [SEQ ID NO: 18]	2310
KPVSLSYRAPFRFFGGRGLKWIQEYLEKALN-NH2 (C-terminus assumed) [SEQ ID NO: 20]	3350
KPVSLSYRAPFRFFRRGGLKWIQEYLEKALN-NH2 (C-terminus assumed) [SEQ ID NO: 22]	744
